Out of some 44,000 compounds screened, about 340 (0.77%) were called active. Inconclusive results (about 5%) are left out. The call rests on the fitted dose curve; in most records, active means well fitted inhibition curve with a large enough effect; inconclusive means small, poorly fitted or top-dose-only effect; inactive means flat fitted curve, though single readings scatter. This is one part of the list.
test: Acumen qHTS Assay for Inhibitors of the mTORC1 Signaling Pathway in MEF (Tsc2-/-, p53-/-) Cells: Sytravon; details: phospho-rpS6 immunofluorescence/PI, 24 h; series mostly up to 38.3 µM; activity change, negative = inhibition: at the top concentration;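 further: plate controls were DMSO for no effect and rapamycin for full effect; nearly all actives have a fitted effect of over 50% in size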
Outline: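 Tsc2-/-, p53-/- mouse embryonic fibroblasts (empty-vector line) exposed to compound 24 hrs at 37 C, fixed, immunostained for phospho-rpS6 and counterstained with propidium iodide. Acumen laser scanning gives % positive cells from Alexa 488/PI ratio, thresholded using 7.5 nM rapamycin; PI count gives viability.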

Row | Compound | activity change, negative = inhibition
1 | CCn1c(C(=O)NCc2ccc(F)cc2)cc2oc3ccccc3c21 | inactive: 0.541%
2 | Cn1c(=O)oc2cc(S(=O)(=O)NC(Cc3ccccc3)C(=O)Nc3ccc(F)cc3)ccc21 (stereo not given) | inactive: -5.24%
3 | CCOC(=O)c1c(NC(=O)C(C)Sc2cn(CCNC(=O)c3c(F)cccc3F)c3ccccc23)sc2c1CCC2 (stereo not given) | inactive: -2.82%
4 | COC(=O)c1c(NC(=O)C(C)Oc2ccc(Cl)c(C)c2)sc(C)c1C (stereo not given) | inactive: 6.18%
5 | Cc1ccc(-c2cc(C(=O)Nc3cc([N+](=O)[O-])ccc3C)no2)cc1F | inactive: 2%
6 | COc1ccc(OC)c(NS(=O)(=O)c2cc3c(cc2Cl)N(C(C)=O)CCO3)c1 | inactive: 0.585%
7 | CCOc1ccc(NC(=O)CC2C(=O)N(c3ccc(F)cc3)C(=O)N2Cc2ccc(OC)c(OC)c2)cc1 (stereo not given) | inactive: 1.4%
8 | O=C(CSc1nc2cc(C(=O)NC3CCCC3)ccc2c(=O)n1CC1CCCO1)c1cccc(Cl)c1 (stereo not given) | inactive: 0%
9 | Cc1ccc(C)c2sc(NC(=O)c3ccc(S(=O)(=O)N4CCC(C)CC4)cc3)nc12 | inactive: -10.6%
10 | CCN1C(=O)c2ccccc2S(=O)c2ccc(C(=O)NCc3ccc(OC)cc3)cc21 (stereo not given) | inactive: 2.51%
11 | COc1ccc(OC)c(CCNC(=O)CS(=O)(=O)Cc2nc(-c3cccc(Cl)c3)oc2C)c1 | inactive: 7.54%
12 | COc1ccc(CCNc2oc(/C=C/c3cc(OC)c(OC)c(OC)c3)nc2C#N)cc1OC | inactive: 2.17%
13 | CCOC(=O)c1ccc(N2C(=O)c3n[nH]c(-c4cccs4)c3C2c2ccc(OCC)cc2)cc1 (stereo not given) | inactive: 0.593%
14 | COc1ccccc1NC(=O)CSc1nnc(N)s1 | inactive: 0.154%
15 | CN(C)c1ccc(CN(Cc2ccco2)C(=O)c2ccc(C(C)(C)C)cc2)cc1 | inactive: -3.26%
16 | Cc1ccc(-c2nc3nc(C)cc(N4CCN(c5cccc(C)c5C)CC4)n3n2)cc1 | inactive: 2.75%
17 | CCOc1ccccc1NC(=O)NCc1ccc2c(c1)CCN2C(=O)c1ccccc1 | inactive: 0%
18 | COc1ccc(/C=C\c2onc(C)c2S(=O)(=O)N2CCC(C(=O)Nc3ccc(F)cc3F)CC2)cc1 | inactive: 2.29%
19 | O=C(NCc1ccccc1Cl)c1ccc2c(c1)NC(=O)C(CS(=O)(=O)Cc1ccc(F)cc1Cl)N2 (stereo not given) | inactive: -5.78%
20 | Cc1oc(-c2cccc(Cl)c2)nc1CSc1nncn2c1cc1occc12 | inactive: -9.38%
21 | O=C(NCCc1ccc(Cl)cc1)c1cnc2sc(N3CCOCC3)nn2c1=O | inactive: 3.97%
22 | COc1cc(OC)c(Nc2nc3ccccc3c3nncn23)cc1Cl | inactive: -2.96%
23 | CCc1ccc(CNC(=O)c2cc(=O)[nH]c3ccc(S(=O)(=O)N4CCCCC4)cc23)cc1 | inactive: 3.14%
24 | COc1ccc(CC(=O)Nc2ccc3nc(Nc4ccc(OC)cc4)cc(C)c3c2)cc1 | inactive: -19.6%

Row | Compound | activity change, negative = inhibition
25 | CCOC(=O)c1c(C)oc2nc(C)nc(Nc3ccc(C)c(Cl)c3)c12 | inactive: 2.7%
26 | CCOC(=O)c1c(NC(=O)c2cc(C(C)C)on2)sc(C(C)=O)c1C | inactive: 3.21%
27 | Cc1c(Cl)ccc2sc(N3CCN(C(=O)C(C)C)CC3)nc12 | inactive: -6.46%
28 | CC(C)NC(=O)N1CCN(S(=O)(=O)c2ccc3c(ccn3C)c2)CC1 | inactive: 1.95%
29 | Cc1ccc(C)c(NC(=O)CN(C)S(=O)(=O)c2ccc3c(c2)CCC(=O)N3)c1 | inactive: -0.0271%
30 | CCOC(=O)c1cc(-c2ccc(OC)cc2)n(CCC(=O)NCc2ccc(OC)cc2)c1C | inactive: -0.185%
31 | CCCS(=O)(=O)c1nc(S(=O)(=O)c2ccc(C)cc2)c(N(C)Cc2ccccc2)s1 | inactive: -11.8%
32 | Cc1ccccc1C(=O)Nc1nnc2n1CCS2 | inactive: -1.26%
33 | Cc1cc(C(=O)N2CCN(c3cccc(C)c3C)CC2)c2c(C)nn(-c3ccccc3)c2n1 | inactive: -7.86%
34 | CCOC(=O)c1c(C)[nH]c(C)c1S(=O)(=O)N1CCCC(C(=O)NCc2cccc(OC)c2)C1 (stereo not given) | inactive: 3.74%
35 | CCOC(=O)c1sc(NC(=O)C2c3ccccc3Oc3ccccc32)c(C#N)c1C | inactive: -19.4%
36 | CCCC(=O)NC(C)c1nc2ccccc2n1Cc1ccccc1 (stereo not given) | inactive: 0.443%
37 | COc1ccc(S(=O)(=O)N2CCCN(CC(=O)Nc3ccc(OC)cc3OC)CC2)cc1 | inactive: 1.51%
38 | COc1ccccc1CNC(=O)CCC1N=C2c3ccccc3N=C(SCC(=O)Nc3ccc(N(C)C)cc3)N2C1=O (stereo not given) | inactive: 2.81%
39 | Cc1c(C(=O)N(C)C)sc2c1c(=O)n(-c1ccc(Cl)cc1)c(=O)n2Cc1ccccc1F | inactive: -12.4%
40 | Cc1cccc(OCC(=O)Nc2cc(-c3ccccc3F)nn2-c2ccccc2)c1 | inactive: 11.8%
41 | COc1cc(NC(=O)N2CCC(CN3CCOCC3)CC2)cc(OC)c1OC | inactive: -7.58%
42 | CC(C)c1ccc(Nc2ncnc3onc(-c4ccc(F)cc4)c23)cc1 | inactive: -0.758%
43 | Cc1cc(Cl)ccc1NC(=O)Cn1nnc2sc(-c3ccccc3)cc2c1=O | inactive: -7.62%
44 | COc1ccc(OC)c2sc(N3CCN(C(=O)CCS(=O)(=O)c4ccc(F)cc4)CC3)nc12 | inactive: -7.8%
45 | Cc1nc2nc(SCC(=O)NC3CCCCC3)nn2c(C)c1Cc1ccccc1Cl | inactive: -7.95%
46 | COC(=O)c1ccc2c(c1)N(Cc1ccc(Cl)cc1)C(=O)c1ccccc1S2 | inactive: -2.53%
47 | COCCNc1nc2c(c(=O)n(Cc3cccc(Br)c3)c(=O)n2C)n1C | inactive: 1.95%
48 | COc1cccc(N2CCN(C(=O)c3cc4c(=O)oc5ccc(C)cc5c4s3)CC2)c1 | inactive: 1.24%

Row | Compound | activity change, negative = inhibition
49 | CCCCn1nc(NC(=O)c2cccc(Cl)c2)c2cc3cccc(C)c3nc21 | inactive: 8.43%
50 | CCCn1c2ccccc2c2cnn(CC(=O)N3CCCC(C)C3)c(=O)c21 (stereo not given) | inactive: -7.8%
51 | CCc1ccccc1-n1c(C)nc2cc(C(=O)NCCc3ccc(Cl)cc3)ccc21 | inactive: 3.13%
52 | Cc1ccc(CNC(=O)C2CCN(S(=O)(=O)c3cn(C)cn3)CC2)cc1 | inactive: 0%
53 | COCCCNC(=O)CCc1c(C)nc2nc(-c3cc(OC)cc(OC)c3)nn2c1C | inactive: 0.685%
54 | CC(C)N(Cc1ccccc1)S(=O)(=O)c1ccc(-c2cc(C(F)(F)F)on2)s1 | inactive: 5.6%
55 | CC(C)OCCCNC(=O)CN1C(=O)COc2ccc(S(=O)(=O)N3CCCCCC3)cc21 | inactive: -3.24%
56 | CCC(Oc1ccccc1)C(=O)Nc1cc(-c2cccc(C)c2)nn1-c1ccccc1 (stereo not given) | inactive: -9.67%
57 | COc1ccc(-n2c(C)c(C(C)=O)c3cc(OC(=O)COc4ccccc4)ccc32)cc1 | inactive: -21.4%
58 | Cc1cc(-c2ccc(C)c(S(=O)(=O)NCc3cccc(Br)c3)c2)on1 | inactive: -8.19%
59 | Cc1cc(C)cc(OCC(=O)N(Cc2cccs2)c2ccc(Cl)cc2)c1 | inactive: 0.885%
60 | CCOCCCNC(=O)c1cnc2sc(N3CCCCC3)nn2c1=O | inactive: 9.49%
61 | Fc1ccc(-c2nn(-c3ccccc3Cl)c3c2cnc2ccccc23)cc1 | inactive: -12.5%
62 | Cc1ccc2onc(CC(=O)N3CCN(c4cc(Cl)ccc4C)CC3)c2c1 | inactive: -10.9%
63 | COc1ccc(-n2nc(C(=O)N3CCN(c4cccc(C)c4C)CC3)c3c4ccccc4n(C)c3c2=O)cc1Cl | inactive: 1.36%
64 | Cc1ccc(CNC(=O)Cc2c(C)c3c(cc(C)c4c(C)coc43)oc2=O)cc1 | inactive: 1.49%
65 | COc1cccc(CNC(=O)Cn2ncn3nc(-c4cccs4)cc3c2=O)c1OC | inactive: -0.865%
66 | O=C(c1ccc2c(c1)N(Cc1ccc(F)cc1)C(=O)c1ccccc1S2(=O)=O)N1CCCC1 | inactive: 0.218%
67 | CCC(=O)N1CCCc2cc(S(=O)(=O)N3CCC(C(=O)NC4CCCCC4)CC3)ccc21 | inactive: -4.93%
68 | COc1ccccc1Cn1c(CNS(=O)(=O)c2ccc(C(C)C)cc2)nc2cccnc21 | inactive: -15.5%
69 | COc1ccc(CNC(=O)c2nc(SCc3ccccc3F)ncc2Cl)cc1 | inactive: -10.8%
70 | CC(NC(=O)c1ccc2c(c1)CCN2S(=O)(=O)c1ccccc1)c1ccccc1 (stereo not given) | inactive: 2.04%
71 | Fc1ccccc1Cc1cn2cc(-c3ccc(Cl)cc3)nc2s1 | inactive: -0.309%
72 | COc1ccccc1NC(=O)c1oc2ccccc2c1NC(=O)c1cccc(OC)c1OC | inactive: -13.5%

Row | Compound | activity change, negative = inhibition
73 | Cc1ccccc1Nc1c(-c2cc(Br)ccc2F)nc2ccccn12 | inactive: 0.441%
74 | CCOC(=O)C1CCC(CN(Cc2ccccc2)S(=O)(=O)c2ccc(Br)cc2)CC1 (stereo not given) | inactive: -25.2%
75 | Cc1cccc(/C=C(\C#N)c2nc3ccccc3c(=O)[nH]2)c1 | inactive: -2.74%
76 | COc1cc(NC(=O)CCS(=O)(=O)c2ccc3c(c2)CC(=O)N3C)cc(OC)c1OC | inactive: 3.62%
77 | COc1ccc(/C=C/c2nc(C#N)c(NCc3ccc(F)cc3)o2)cc1OC | inactive: -26.9%
78 | CCOc1ccc(-c2cc(C(=O)Oc3ccc(C#N)cc3)no2)cc1 | inactive: -1.57%
79 | COc1ccc(N2CCN(CCCNC(=O)c3cc(Nc4ccc(OC)cc4OC)nc4ccccc34)CC2)cc1 | inactive: -8.59%
80 | O=C(CCS(=O)(=O)c1ccccc1)N(Cc1cccnc1)c1nc2ccc(Cl)cc2s1 | inactive: 0.451%
81 | CCCN1Cc2cccc(C(=O)Nc3ccc(C(C)=O)cc3)c2C1=O | inactive: 0.499%
82 | COc1cccc(C(=O)c2c(N)c(-c3nc(-c4ccccc4)cs3)c3ccccn23)c1 | inactive: 3.88%
83 | Cc1cccc(-n2c(=O)c3c(c4cc(C)ccc4n3C)n(CC(=O)N3CCCC3)c2=O)c1 | inactive: -4.42%
84 | O=C(CN1C(=O)COc2ccccc21)NCCc1ccc(Cl)cc1 | inactive: 10.7%
85 | CCOc1ccc(N(CC)S(=O)(=O)N2CCCC(C(=O)Nc3ccc(C(C)=O)cc3)C2)cc1 (stereo not given) | inactive: -8.53%
86 | Cc1ccc(CNC(=O)c2ccc(NC(=O)N3CCSc4ncccc43)cc2)cc1 | inactive: -6.46%
87 | CCc1ccc(-n2c(=O)c3c4c(sc3n(CC(=O)N3CCCCC3CC)c2=O)CCC4)cc1 (stereo not given) | inactive: 1.16%
88 | Cc1c(CCC(=O)NCCc2ccc(Cl)cc2)c(=O)oc2c(C)c(O)ccc12 | inactive: 0.453%
89 | CCc1ccc(NC(=O)CN2C(=O)C(c3ccc(Cl)cc3)=NC23CCCCC3)cc1 | inactive: 0.933%
90 | CCOc1ccccc1NC(=O)c1nc(SC(C)C)ncc1Cl | inactive: 5.28%
91 | Cc1c(CNC2CCCCC2)c(C(=O)O)c(C)n1Cc1cccc(Cl)c1 | inactive: -0.419%
92 | Cc1ccc(NC(=O)Cn2c(=O)n(Cc3nc(C)no3)c(=O)c3ccccc32)c(Cl)c1 | inactive: -1.43%
93 | Cc1cccc(C)c1OCCCn1c(CCNC(=O)C2CCCCC2)nc2ccccc21 | inactive: -1.29%
94 | Cc1c(C(=O)Nc2cccc(Cl)c2)sc2nc3n(c(=O)c12)N=C(c1cccc(Br)c1)CS3 | inactive: 4.89%
95 | COc1ccc(CNC(=O)c2ccc(N3CCCC3)c(NC(=O)NCc3ccc(C)cc3)c2)cc1 | inactive: 0%

Reference: PubChem BioAssay AID493208 (National Center for Advancing Translational Sciences (NCATS), 2011)
